Assay results from the supplement of paper PMC4466236.
The full ranking holds about 33,000 sequences; the median of “E-score (dimensionless, -0.5 to 0.5)” is about -0.058, and the highest 2% start at about 0.35. The list shows a part of the results.

Tested on: MvaT
Assay: PBM 8-mer E-score (mean of HK and ME arrays) (E-score (dimensionless, -0.5 to 0.5)); higher = stronger relative binding preference; most listed sequences are background and not binding sites
How it was run: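 Full-length P. aeruginosa MvaT carrying an N-terminal glutathione S-transferase tag was tested by protein binding microarray following a previously described protocol. Two universal double-stranded 60-mer arrays, ME and HK, were used, each with a constant 25-mer primer region and a variable 35-mer region covering all 8-mers. The rank-based E-score is the mean of the two arrays, parsed with a custom script. Its range runs from -0.5 to 0.5 for each 8-mer.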

Sequence | PBM 8-mer E-score
AACTTATA | 0.415
ATCAGCGG | -0.214
CAGCACGG | -0.189
ACGAGTAG | -0.139
CACATGAA | 0.0276
ATAAGAAC | 0.192
TCTTCGAA | 0.00918
CTAAGAAC | 0.0927
ATACCAAT | 0.166
AATTTGCC | 0.167
CTTCGACC | -0.145
TATTCTCA | 0.205
AAATACGG | 0.146
CAATGCCG | 0.0384
GATTAGCC | -0.0789
ACCATTAA | 0.263
ATTCCTTA | 0.123
AACCCAGA | 0.0439
AACTAATG | 0.312
CCTGAGCG | -0.27
TACGTCAA | 0.13
CAGTACTC | 0.08
CACACATA | 0.176
AACGGTGT | -0.0275

Sequence | PBM 8-mer E-score
GCAGTGAA | -0.0979
CTGTGCAA | -0.114
CCGTGACC | -0.274
GGACTACA | -0.0133
GCTGATAA | 0.184
CGTTCGAA | -0.108
AATGCAGA | -0.0313
CCCCTCGC | -0.289
CATAGATC | 0.00108
CGGAAAAC | 0.0835
CACTCCCA | -0.0654
AAACTACG | 0.246
AACTAAAA | 0.345
TGGTGTAA | 0.257
ATTACAAT | 0.322
ATTCGTCG | -0.00371
AACGTATA | 0.263
CGCATGAG | -0.191
CGATAATA | 0.301
TAAATTTA | 0.414
AACGTCCG | -0.181
GATCACTA | -0.0628
TCTTGTCA | -0.189
CGTCCGTC | -0.323

Sequence | PBM 8-mer E-score
AGTCCGCA | 0.0621
ACAAAAGA | 0.143
GAGCGGTA | -0.156
CTTCGTCC | -0.284
AACCATCT | 0.0815
AGTTTAGG | 0.162
CACGATGC | -0.0641
ATGGGTAC | -0.0802
TAAAGCGA | 0.0135
AAACGGCC | -0.128
CCTGGAAA | -0.0539
CCTTCGCA | -0.234
GTGGAGAA | -0.123
TACGCGTA | 0.102
GTGATGCA | -0.0484
GTTCCCTA | -0.0545
ACTACGAA | 0.148
GCTACCTA | -0.0978
ATGGCTGG | -0.212
ACATCCGT | -0.0148
ATCAAGGC | -0.14
CCGGGGTC | -0.262
GATCACCA | -0.205
ACGCAACA | 0.0715

Sequence | PBM 8-mer E-score
CACCAGCA | -0.121
CTCAGCAC | -0.246
CGGGTTGC | -0.117
ACCGTTTC | -0.321
CTACCGTA | -0.0529
AAGTCTGT | 0.0336
GACCGCCC | -0.264
ATACGAAG | 0.0479
AAATAAAC | 0.334
CCGACAGC | -0.0581
AAGACGAA | 0.0457
ATCTCTCC | -0.192
TAATGCAA | 0.25
CAAATATG | 0.264
CTAACCAG | -0.152
CCCTTTAG | -0.113
CTACTAGA | -0.0802
CAGCGCTG | -0.201
CCGTAGGA | -0.216
GCCAACGC | -0.237
GATCAATC | -0.178
AAACAGGA | 0.00359
